Measured values from the supplement of paper PMC12217912.
The list shows a part of the results. The full chains were built here from the parent and the listed change. Values near 0.05 are background.

B1: TEV protease; numbered along this chain (parent)
chain: MGESLFKGPRDYNPISSSICHLTNESDGHTTSLYGIGFGPFIITNKHLFRRNNGTLVVQSLHGVFKVKDTTTLQQHLVDGRDMIIIRMPKDFPPFPQKLKFREPQREERICLVTTNFQTKSMSSMVSDTSCTFPSGDGIFWKHWIQTKDGQCGSPLVSTRDGFIVGIHSASNFTNTNNYFTSVPKNFMELLTNQEAQQWVSGWRLNADSVLWGGHKVFMVKPEEPFQPVKEATQL

Variants of: B1
Test: raw area under fraction-flipped curve 0-4 h after induction (AUC4h, not background-subtracted), DNA-recorder readout of cleavage of the substrate (dimensionless); higher = more cleavage of the substrate by the protease variant
Settings: temperature: 34 °C; time window: 0-4 h after rhamnose induction
Method: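 In vivo DNA recorder in E. coli TOP10(DE3) ΔrhaA at 34 °C. Each TEVp single-site mutant (parent TEVp 0) is paired with a single-site variant of the 7-mer TEVs (canonical ENLYFQ|S). The substrate sits between flexible linkers in a Bxb1-sfGFP-TEVs-SsrA fusion, so cleavage stabilises Bxb1 and speeds flipping of a recombination array, read by NGS. The value is the raw area under the fraction-flipped curve over 0-4 h after rhamnose induction (AUC4h), with ≥20 reads per time point. It is not background-subtracted; inactive controls average about 0.047.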
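Note: Bxb1 expression induced with 0.2% (w/v) L-rhamnose at OD600 near 0.5, cultures sampled hourly, flipped fraction per protease–substrate barcode pair counted by paired-end Illumina sequencing.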

Row | Variant | area with substrate EALYFQS | area with substrate ECLYFQS | area with substrate EDLYFQS | area with substrate EFLYFQS | area with substrate EILYFQS | area with substrate EKLYFQS | area with substrate ELLYFQS | area with substrate EMLYFQS | area with substrate EPLYFQS | area with substrate EQLYFQS | area with substrate ERLYFQS | area with substrate ESLYFQS | area with substrate ETLYFQS | area with substrate EVLYFQS | area with substrate EWLYFQS | area with substrate EYLYFQS | area with substrate EELYFQS | area with substrate EGLYFQS | area with substrate EHLYFQS
1 | F133W | 0.118 | 0.103 | 0.143 | 0.0996 | 0.0841 | 0.123 | 0.0719 | 0.11 | 0.123 | 0.121 | 0.0992 | 0.096 | 0.109 | 0.114 | 0.0969 | 0.115 | – | – | –
2 | P134D | 0.0942 | 0.0856 | 0.0954 | – | 0.0697 | 0.0851 | – | 0.0747 | 0.0838 | 0.0821 | 0.0605 | 0.0775 | 0.0796 | 0.0821 | 0.0792 | 0.0769 | 0.0852 | 0.055 | –
3 | P134G | 0.116 | 0.0612 | 0.0942 | 0.0718 | – | 0.0723 | 0.0789 | – | 0.0767 | – | 0.0855 | 0.0843 | – | 0.053 | 0.0795 | 0.0795 | 0.0907 | 0.0835 | 0.107
4 | S135R | 0.0615 | 0.0619 | 0.088 | – | 0.064 | 0.0533 | 0.0848 | 0.0721 | 0.0775 | 0.0054 | 0.0731 | 0.0661 | 0.0718 | – | – | 0.069 | – | 0.0634 | 0.0841
5 | F140G | 0.0499 | 0.0645 | 0.0534 | 0.045 | 0.0572 | 0.0058 | 0.054 | 0.0521 | 0.074 | 0.061 | 0.0741 | 0.0596 | 0.0533 | 0.0621 | 0.0507 | – | 0.0528 | 0.0639 | –
6 | W141A | 0.0458 | 0.0694 | 0.0554 | – | – | 0.0443 | – | 0.0426 | – | 0.0457 | 0.0677 | 0.0594 | – | 0.0973 | 0.0591 | – | 0.0588 | – | –
7 | W141I | 0.0765 | 0.0594 | 0.0664 | 0.0657 | 0.0663 | 0.104 | – | 0.0707 | – | – | – | – | 0.0812 | – | 0.0203 | – | – | 0.0613 | –
8 | W141P | 0.0497 | 0.0557 | 0.0727 | 0.0651 | 0.049 | 0.063 | 0.0571 | – | 0.0546 | 0.049 | 0.0382 | 0.0683 | – | 0.0599 | 0.0426 | 0.0352 | – | 0.0585 | –
9 | K142I | 0.113 | 0.102 | 0.102 | 0.106 | 0.0864 | 0.0847 | – | 0.0944 | – | 0.143 | 0.105 | 0.135 | – | 0.119 | – | 0.089 | 0.131 | 0.0755 | –
10 | K142L | 0.132 | 0.104 | 0.137 | 0.101 | 0.104 | 0.104 | – | 0.114 | – | 0.124 | 0.124 | 0.0852 | – | 0.104 | – | 0.108 | – | 0.116 | 0.116
11 | I145K | 0.0518 | 0.0677 | 0.0587 | – | 0.0469 | 0.0527 | – | 0.0466 | 0.0646 | 0.0592 | 0.0503 | 0.0594 | – | 0.0776 | – | 0.0514 | – | 0.0577 | 0.0615
12 | Q146C | 0.133 | 0.138 | 0.174 | 0.117 | 0.113 | 0.158 | 0.113 | 0.143 | 0.144 | 0.177 | – | 0.177 | 0.165 | 0.0762 | 0.0902 | – | 0.0931 | – | 0.126
